Reference: the BET-seq Pho4 binding data (Le et al. 2018)
The other results are listed elsewhere or left out. Values were computed here from the reads of four pooled replicates and scatter widely.

Biological target: T1, Pho4 (S. cerevisiae) (UniProt P07270)
T1 sequence: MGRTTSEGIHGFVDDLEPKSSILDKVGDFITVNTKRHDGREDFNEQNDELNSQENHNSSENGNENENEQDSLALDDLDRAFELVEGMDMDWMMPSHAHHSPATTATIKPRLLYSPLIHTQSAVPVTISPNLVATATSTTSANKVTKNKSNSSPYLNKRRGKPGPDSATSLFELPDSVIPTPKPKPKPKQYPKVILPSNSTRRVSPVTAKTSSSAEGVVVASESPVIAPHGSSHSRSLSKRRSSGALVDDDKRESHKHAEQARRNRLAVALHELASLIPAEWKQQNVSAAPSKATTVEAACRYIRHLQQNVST
Experiment: relative binding free energy (BET-seq); higher = weaker binding
Conditions: reference: library average

Sequence	relative binding free energy
GTGCTCACGTGTTGCG	0.14 kcal/mol
AGATTCACGTGACGTT	0.44 kcal/mol
TGTTACACGTGCTCGG	0.07 kcal/mol
GTTGTCACGTGCAGTA	0.1 kcal/mol
CAGTGCACGTGGGCTG	-0.3 kcal/mol
GTACTCACGTGGTTTA	0.16 kcal/mol
TATTGCACGTGTGTGC	0.05 kcal/mol
GTTTACACGTGCGTTA	0.23 kcal/mol
AAGTGCACGTGTAGTC	0.15 kcal/mol
CTTAACACGTGGGGAT	-0.12 kcal/mol
TATAACACGTGGGGTC	-0.02 kcal/mol
CGGTGCACGTGTGCTT	0 kcal/mol
TACGTCACGTGTAATT	0.27 kcal/mol
ATCGGCACGTGTGGTG	0.08 kcal/mol
GAGGTCACGTGGATCG	0.17 kcal/mol
CTGTACACGTGGCGTA	0.08 kcal/mol
TTTTCCACGTGAGCGT	0.25 kcal/mol
TGAAGCACGTGCGCGG	-0.19 kcal/mol
TAGTACACGTGGAGGC	0.1 kcal/mol
TGGTACACGTGGGCTA	-0.08 kcal/mol
AAAGGCACGTGGTTAA	-0.23 kcal/mol
TAGTTCACGTGCGTCG	0.21 kcal/mol
ATGGACACGTGGGTGT	-0.15 kcal/mol

Sequence	relative binding free energy
GCTTACACGTGTGTGC	0.25 kcal/mol
TACGTCACGTGTTGTT	-0.01 kcal/mol
AGTCGCACGTGTGTTA	-0.06 kcal/mol
TTTGACACGTGGATGT	0.08 kcal/mol
TGTTACACGTGGTAGA	-0.15 kcal/mol
ATTAGCACGTGATAGA	0.08 kcal/mol
TTATACACGTGGTGGT	-0.04 kcal/mol
ATTGTCACGTGGGGTG	-0.04 kcal/mol
CGGTACACGTGTCGGT	0.12 kcal/mol
CGAAGCACGTGAGGGG	0.12 kcal/mol
ATTGTCACGTGCTTAT	-0.01 kcal/mol
GCAGGCACGTGGGAGC	-0.08 kcal/mol
ATGTACACGTGTCTGG	-0.03 kcal/mol
TCGAACACGTGGAGGG	0.04 kcal/mol
TGATTCACGTGGGCGC	0.19 kcal/mol
TGATGCACGTGATTAT	0.17 kcal/mol
AGTGACACGTGTGTAA	0.02 kcal/mol
GCTTGCACGTGGGGAG	-0.03 kcal/mol
AGTGGCACGTGGAGTT	-0.11 kcal/mol
GGCTACACGTGTTGTC	0.35 kcal/mol
TAGTCCACGTGGGCGG	-0.26 kcal/mol
TTATGCACGTGATCGT	0 kcal/mol
TGGGGCACGTGTTACT	-0.11 kcal/mol

Sequence	relative binding free energy
CTTTTCACGTGCAGGG	0.23 kcal/mol
ATTAGCACGTGAGGAT	0.05 kcal/mol
GTGTTCACGTGAAGAT	0.45 kcal/mol
GGCTGCACGTGGTGAT	-0.03 kcal/mol
ATAGTCACGTGTTAAT	0.04 kcal/mol
AGGAACACGTGGGGTA	-0.06 kcal/mol
TATTGCACGTGGTAGC	0.05 kcal/mol
GCGTACACGTGTGGTA	0.17 kcal/mol
TTAGGCACGTGTAACT	-0.02 kcal/mol
CATATCACGTGGGGTT	-0.06 kcal/mol
GTTGTCACGTGAGATT	0.38 kcal/mol
CGGTTCACGTGGGTTA	0.04 kcal/mol
AATTTCACGTGTGGTG	0.39 kcal/mol
TATGGCACGTGTGGTC	-0.11 kcal/mol
TTGGACACGTGTATGT	0.04 kcal/mol
GCAAACACGTGGGGGT	-0.15 kcal/mol
GGTTGCACGTGGATCA	0.04 kcal/mol
ATTGGCACGTGTTGAG	-0.11 kcal/mol
TGTGGCACGTGGTTCC	-0.17 kcal/mol
TAGTTCACGTGTGGAC	0.21 kcal/mol
GTCTTCACGTGTTGAG	0.39 kcal/mol
AGCGTCACGTGGTAGG	0.1 kcal/mol
GTAGTCACGTGGAAAT	0.15 kcal/mol

Sequence	relative binding free energy
GTTTTCACGTGTCGTC	0.29 kcal/mol
TCTGGCACGTGTCAGG	-0.05 kcal/mol
ATTCGCACGTGCGGTT	-0.02 kcal/mol
GCAGGCACGTGACGGT	0.16 kcal/mol
TCATACACGTGATTGG	0.18 kcal/mol
GATATCACGTGGTTGC	0.32 kcal/mol
TGTTGCACGTGTGACT	0.17 kcal/mol
ATAAGCACGTGGCGGG	-0.16 kcal/mol
AGTTTCACGTGAGGTG	0.39 kcal/mol
TACTGCACGTGGGGTT	-0.16 kcal/mol
TCGGTCACGTGGAGAT	0.24 kcal/mol
TGGGTCACGTGTTACG	0.13 kcal/mol
ATAGGCACGTGGGGAA	-0.32 kcal/mol
TTTTACACGTGGGGGG	0 kcal/mol
GGTGTCACGTGAAAGA	0.33 kcal/mol
TTGTTCACGTGCGCGG	0.27 kcal/mol
GGTTCCACGTGGTTAG	0.02 kcal/mol
TGGTTCACGTGCAGAA	0.28 kcal/mol
TGTAACACGTGGGGAG	-0.05 kcal/mol
GTTTTCACGTGAAGTG	0.59 kcal/mol
ATGGCCACGTGTAAGT	0.01 kcal/mol
GATGTCACGTGGCAGT	0.11 kcal/mol
TTGCACACGTGATGGT	0.26 kcal/mol

Sequence	relative binding free energy
TGTATCACGTGACTAT	0.29 kcal/mol
CCTTGCACGTGGAGGT	-0.08 kcal/mol
CTTGTCACGTGGAGGC	0.07 kcal/mol
TGGTGCACGTGGCAAG	-0.08 kcal/mol
CGGTGCACGTGCCGGT	-0.18 kcal/mol
TTGCGCACGTGTGTCG	-0.03 kcal/mol
TGGATCACGTGTAGCT	0.12 kcal/mol
CGATCCACGTGGGTGT	-0.02 kcal/mol
AAGGACACGTGATATG	0.1 kcal/mol
AGTTGCACGTGTGTTA	0.17 kcal/mol
GTTGACACGTGTATTG	0.09 kcal/mol
GCGTTCACGTGTTGAG	0.18 kcal/mol
AAGGGCACGTGTTGGA	0.02 kcal/mol
TGATGCACGTGAGTTA	0.12 kcal/mol
GCTTGCACGTGTGGCG	-0.04 kcal/mol
TGGATCACGTGATAGA	0.18 kcal/mol
AGCGGCACGTGTAGGA	0.17 kcal/mol
TGGGGCACGTGATCAT	-0.21 kcal/mol
TAGGCCACGTGGGTGC	-0.06 kcal/mol
ATTGCCACGTGGGTAG	-0.27 kcal/mol
GAAGACACGTGGCGGG	-0.07 kcal/mol
GGGATCACGTGCGGGC	0.18 kcal/mol
TGGCTCACGTGATGAG	0.28 kcal/mol
